Data on 47 sequences can be found in paper PMC5892938.

The list shows a part of the results. At the low end of the ranking, values are background and their order means little.

This experiment deals with GST-SBP-SLBP (stem-loop binding protein) (UniProt Q14493). Kind of experiment: targeted RNA Bind-n-Seq.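 Note: DESeq read counts versus GST-SBP nonspecific binding control pulldown.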 The following applies: RBNS binding buffer: 25 mM Tris pH 7.5, 150 mM KCl, 3 mM MgCl2, 0.1% Tween, 0.5 mg/mL BSA, 1 mM DTT; 27 nM protein, 750 pM RNA pool; temperature not stated; high values mean tight binding.
As for “GGUCACGUCUCAAUCAACUCCCUCGAGGGGGGGAAAACCCCUUUACCCUCAUAAUCAACAGCUCGCAGUCAAG”, the binding signal (log2 fold change) came out at 0.109. For “GGUCACGUCUCAAUCAACUCUAUCUCCAGGGAAAGCCCUGGUUAUUUCAACAGCUCGCAGUCAAG” the value was 0.00761. As for “GGUCACGUCUCAAUCAACUCAUCGUCAGGAGUUUCCUCCUGCAAAUUCAACAGCUCGCAGUCAAG”, the figure is 0.169.

“GGUCACGUCUCAAUCAACUCAUUUCCAGGAGUUUACUCCUGUUUUUUCAACAGCUCGCAGUCAAG”: the binding signal (log2 fold change) is -0.102. Regarding “GGUCACGUCUCAAUCAACUCAUACGAGGGGGGGAAAACCCCUUUGCCCUCAAUCUCAACAGCUCGCAGUCAAG”, the binding signal (log2 fold change) was -0.167.

As for “GGUCACGUCUCAAUCAACUCAGUUUCAGGAGUUUCCUCCUGUUUAUUCAACAGCUCGCAGUCAAG”, the binding signal (log2 fold change) was -0.00181.

For the sequence “GGUCACGUCUCAAUCAACUCUACUUCCAGGGAAAACCCUGGUUUUUUCAACAGCUCGCAGUCAAG”, the binding signal (log2 fold change) is -0.0647. For “GGUCACGUCUCAAUCAACUCAUCGUCAGGAGUUUACUCCUGCAUUCUCAACAGCUCGCAGUCAAG” the value was 0.239. For “GGUCACGUCUCAAUCAACUCUAUUUCAGGAGUUUACUCCUGCUUAUUCAACAGCUCGCAGUCAAG” the value was 0.0572; for “GGUCACGUCUCAAUCAACUCUCUAGAGGGGGGGAAAACCCCUUUGCCCUCAUCCUCAACAGCUCGCAGUCAAG”, 0.441. As for “GGUCACGUCUCAAUCAACUCUAUUCCAGGAGUUUUCUCCUGUUUACUCAACAGCUCGCAGUCAAG”, the figure is -0.0675; as for “GGUCACGUCUCAAUCAACUCCAACGAGGGGGGGAAAACCCCUUUACCCUCUACCUCAACAGCUCGCAGUCAAG”, -0.281. Consider “GGUCACGUCUCAAUCAACUCUUUUUCAGGAGUUUACUCCUGCUAUUUCAACAGCUCGCAGUCAAG”, for which the binding signal (log2 fold change) worked out at 0.0813. For “GGUCACGUCUCAAUCAACUCAAUUCCCAGGGAAACCCCUGGCUUAUUCAACAGCUCGCAGUCAAG” the value was 0.145.

On to “GGUCACGUCUCAAUCAACUCAUCUUCCAGGGAAAACCCUGGCAUAUUCAACAGCUCGCAGUCAAG”, for which the binding signal (log2 fold change) worked out at 0.0172. As for “GGUCACGUCUCAAUCAACUCAUUCUCCAGGGAAAUCCCUGGUAUUUUCAACAGCUCGCAGUCAAG”, the figure is -0.181; as for “GGUCACGUCUCAAUCAACUCAUCGUCCAGGGAAACCCCUGGUAAAUUCAACAGCUCGCAGUCAAG”, 0.112; as for “GGUCACGUCUCAAUCAACUCUACUUCAGGAGUUUACUCCUGUUAUCUCAACAGCUCGCAGUCAAG”, 0.0944. For the sequence “GGUCACGUCUCAAUCAACUCUUCCCCCAGGGAAAUCCCUGGUAAUCUCAACAGCUCGCAGUCAAG”, the binding signal (log2 fold change) is 0.00342. As for “GGUCACGUCUCAAUCAACUCAAUCUCCAGGGAAAUCCCUGGCAUUCUCAACAGCUCGCAGUCAAG”, the figure is 0.193. As for “GGUCACGUCUCAAUCAACUCAUUUUCAGGAGUUUACUCCUGCAAUUUCAACAGCUCGCAGUCAAG”, the figure is -0.212; as for “GGUCACGUCUCAAUCAACUCUUCGUCAGGAGUUUUCUCCUGUUAACUCAACAGCUCGCAGUCAAG”, -0.0266; as for “GGUCACGUCUCAAUCAACUCCCUCGAGGGGGGGAAAACCCCUUUACCCUCUUUCUCAACAGCUCGCAGUCAAG”, 0.243.

Take “GGUCACGUCUCAAUCAACUCUUCCCCCAGGGAAAUCCCUGGCUAACUCAACAGCUCGCAGUCAAG”: the binding signal (log2 fold change) came out at 0.086. For “GGUCACGUCUCAAUCAACUCUAUCCCCAGGGAAAGCCCUGGCUAUCUCAACAGCUCGCAGUCAAG” the value was 0.197; for “GGUCACGUCUCAAUCAACUCCAACGAGGGGGGGAAAACCCCUUUACCCUCCAAAUCAACAGCUCGCAGUCAAG”, 0.107; for “GGUCACGUCUCAAUCAACUCAUCCCCAGGAGUUUUCUCCUGCAAUCUCAACAGCUCGCAGUCAAG”, 0.068.

As to “GGUCACGUCUCAAUCAACUCAAACGAGGGGGGGAAAACCCCUUUGCCCUCAACAUCAACAGCUCGCAGUCAAG”, the binding signal (log2 fold change) was -0.0481.

With “GGUCACGUCUCAAUCAACUCCAAAGAGGGGGGGAAAACCCCUUUGCCCUCCAUAUCAACAGCUCGCAGUCAAG”, the binding signal (log2 fold change) is -0.35. As for “GGUCACGUCUCAAUCAACUCAAUUCCCAGGGAAAACCCUGGCUUAUUCAACAGCUCGCAGUCAAG”, the figure is -0.333; as for “GGUCACGUCUCAAUCAACUCAUCUUCAGGAGUUUCCUCCUGCUUUCUCAACAGCUCGCAGUCAAG”, 0.163.

For “GGUCACGUCUCAAUCAACUCUUUCGAGGGGGGGAAAACCCCUUUACCCUCAUAUUCAACAGCUCGCAGUCAAG”, the binding signal (log2 fold change) is -0.338. Take “GGUCACGUCUCAAUCAACUCAAUUUCCAGGGAAACCCCUGGUUUAUUCAACAGCUCGCAGUCAAG”: the binding signal (log2 fold change) is -0.106. For “GGUCACGUCUCAAUCAACUCUUCUCCCAGGGAAAGCCCUGGUAUAUUCAACAGCUCGCAGUCAAG”, the binding signal (log2 fold change) was -0.0641. For “GGUCACGUCUCAAUCAACUCAAUCGCAGGAGUUUUCUCCUGGUAACUCAACAGCUCGCAGUCAAG” the value was 0.117; for “GGUCACGUCUCAAUCAACUCCCCAGAGGGGGGGAAAACCCCUUUACCCUCAACCUCAACAGCUCGCAGUCAAG”, 0.0288; for “GGUCACGUCUCAAUCAACUCAUUCUCCAGGGAAACCCCUGGUUUUCUCAACAGCUCGCAGUCAAG”, -0.0852. For “GGUCACGUCUCAAUCAACUCUUCCUCAGGAGUUUUCUCCUGCAAUGUCAACAGCUCGCAGUCAAG” the value was 0.103; for “GGUCACGUCUCAAUCAACUCAAAAGAGGGGGGGAAAACCCCUUUACCCUCCGAAUCAACAGCUCGCAGUCAAG”, -0.47; for “GGUCACGUCUCAAUCAACUCAUCCUCCAGGGAAAUCCCUGGCAAUCUCAACAGCUCGCAGUCAAG”, -0.028. As for “GGUCACGUCUCAAUCAACUCAGUUUCAGGAGUUUGCUCCUGCUUUCUCAACAGCUCGCAGUCAAG”, the figure is 0.0327; as for “GGUCACGUCUCAAUCAACUCCAAAGAGGGGGGGAAAACCCCUUUACCCUCCGUAUCAACAGCUCGCAGUCAAG”, 0.125; as for “GGUCACGUCUCAAUCAACUCUUCGUCCAGGGAAAUCCCUGGCAAAUUCAACAGCUCGCAGUCAAG”, 0.152. Take “GGUCACGUCUCAAUCAACUCCCAAGAGGGGGGGAAAACCCCUUUACCCUCAACCUCAACAGCUCGCAGUCAAG”: the binding signal (log2 fold change) was -0.191. For “GGUCACGUCUCAAUCAACUCCCUGGAGGGGGGGAAAACCCCUUUACCCUCAUUAUCAACAGCUCGCAGUCAAG” the value was -0.0951.

Regarding “GGUCACGUCUCAAUCAACUCAUUCCCCAGGGAAAACCCUGGCUUUCUCAACAGCUCGCAGUCAAG”, the binding signal (log2 fold change) is -0.0221. Take “GGUCACGUCUCAAUCAACUCUUCGGAGGGGGGGAAAACCCCUUUACCCUCACUAUCAACAGCUCGCAGUCAAG”: the binding signal (log2 fold change) was -0.0809.
